From paper PMC3390797, “Regulation of ASIC channels by a stomatin/STOML3 complex located in a mobile vesicle pool in sensory neurons” (Open Biology, 2012)
Numbering of substitutions follows the chain as printed. Read-outs that look alike come from different tables or passages of the source. No constants are given. Whether binding was seen depends on the method and setting. Binding seen in cells or lysates may run through a third protein. Some binding calls cover weakened binding; strength is not graded here. Where a sequence is shown, tags or fusion partners need not be part of it.

Sequences of proteins named here, by UniProt entry; tags and fusion partners are left off. A change or cut given only in a name is not applied to a line headed by its entry. A line that says so, or that is headed by a name, gives the form on record, which may keep a tag or linker.
Flag-tagged ASIC2b (Q62962-2, form named): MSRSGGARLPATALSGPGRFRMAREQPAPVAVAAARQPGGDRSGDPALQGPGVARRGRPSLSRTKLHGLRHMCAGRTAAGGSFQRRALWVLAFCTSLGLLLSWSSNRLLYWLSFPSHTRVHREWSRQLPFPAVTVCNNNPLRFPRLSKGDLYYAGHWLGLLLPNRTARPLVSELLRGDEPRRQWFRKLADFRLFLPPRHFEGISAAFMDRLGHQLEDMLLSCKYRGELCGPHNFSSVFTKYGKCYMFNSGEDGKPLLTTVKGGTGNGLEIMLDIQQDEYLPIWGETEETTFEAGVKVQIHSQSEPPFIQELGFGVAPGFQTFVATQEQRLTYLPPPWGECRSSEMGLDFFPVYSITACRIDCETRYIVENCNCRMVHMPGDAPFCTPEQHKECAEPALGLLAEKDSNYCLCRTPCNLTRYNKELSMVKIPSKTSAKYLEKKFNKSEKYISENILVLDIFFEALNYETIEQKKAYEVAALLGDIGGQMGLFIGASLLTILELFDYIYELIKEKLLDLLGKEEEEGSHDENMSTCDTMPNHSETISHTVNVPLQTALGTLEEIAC

How the values were obtained:
[1] = molecular target: T1, P40S STOML3 mutant protein (Strep-tagged, CFP-tagged) (mouse) (UniProt Q6PE84); assay: co-IP; CHO cells transiently transfected with STOML3-Strep and ASICx-Flag or stomatin-Myc (1:1), 48 h; lysed in RIPA buffer (50 mM Tris pH 7.4, 300 mM NaCl, 1 mM EDTA, 0.5% deoxycholic acid, 0.5% Triton-X100, 0.1% SDS, 1 mM DTT); anti-Strep antibody and Protein G agarose overnight; blot with anti-Flag or anti-Myc
T1 sequence: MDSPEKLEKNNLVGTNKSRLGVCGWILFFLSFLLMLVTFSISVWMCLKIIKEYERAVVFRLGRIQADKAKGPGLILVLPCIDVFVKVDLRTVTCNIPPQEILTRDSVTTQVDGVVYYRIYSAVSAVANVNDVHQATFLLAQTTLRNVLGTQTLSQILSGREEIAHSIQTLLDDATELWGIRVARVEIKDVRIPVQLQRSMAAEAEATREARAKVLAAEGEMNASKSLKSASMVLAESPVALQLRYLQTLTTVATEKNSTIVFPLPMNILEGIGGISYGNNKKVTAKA

[2] = molecular target: T2, Strep-tagged STOML3-AmCyan1 (stomatin-like protein-3, wild type) (mouse) (UniProt Q6PE84); assay: as above
T2 sequence: T1 sequence with S40P

[3] = molecular target: T3, STOML3-Δ1–128 (Strep-tagged, CFP-tagged) (mouse) (UniProt Q6PE84); assay: as above
T3 sequence: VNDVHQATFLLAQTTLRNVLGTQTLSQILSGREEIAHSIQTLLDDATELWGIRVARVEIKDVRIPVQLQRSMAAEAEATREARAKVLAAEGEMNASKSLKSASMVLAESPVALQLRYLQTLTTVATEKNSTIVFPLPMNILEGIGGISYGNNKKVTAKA

[4] = molecular target: T4, STOML3Δ1–50 (Strep-tagged, CFP-tagged) (mouse) (UniProt Q6PE84); assay: as above
T4 sequence: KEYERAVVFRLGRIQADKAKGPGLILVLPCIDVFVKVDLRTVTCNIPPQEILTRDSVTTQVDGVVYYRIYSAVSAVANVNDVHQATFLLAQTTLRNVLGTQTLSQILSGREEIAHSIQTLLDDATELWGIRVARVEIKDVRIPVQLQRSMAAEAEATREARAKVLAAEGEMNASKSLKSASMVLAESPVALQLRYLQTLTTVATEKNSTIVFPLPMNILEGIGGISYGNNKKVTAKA

[5] = molecular target: stomatin fused to a fragment of YFP (Venus) for BiFC (mouse) (UniProt P54116); assay: split reporter; BiFC with Venus fragments VN173 and VC155; CHO cells transiently transfected with two plasmids, 24 h, fixed with 4 per cent PFA, epifluorescence
[6] = molecular target: T5, STOML3 fused to the N-terminal fragment of YFP (Venus) for BiFC (mouse) (UniProt Q6PE84); assay: as above
T5 sequence: T1 sequence with S40P

[7] = molecular target: T2, Strep-tagged STOML3-AmCyan1 (stomatin-like protein-3, wild type) (mouse); assay: co-IP; CHO cells transiently transfected with STOML3-Strep and ASICx-Flag or stomatin-Myc (1:1), 48 h; lysed in RIPA buffer (50 mM Tris pH 7.4, 300 mM NaCl, 1 mM EDTA, 0.5% deoxycholic acid, 0.5% Triton-X100, 0.1% SDS, 1 mM DTT); anti-Strep antibody and Protein G agarose overnight; blot with anti-Flag or anti-Myc; remark: listed apart in the source

For “Flag-tagged ASIC2a (from UniProt Q62962-1 1-512)”, the binding [1] was “binds”, the binding [2] was “binds” and the binding [3] was “no binding”. The binding [4] was “no binding”.

For “Flag-tagged ASIC2b (from UniProt Q62962-2 1-563)”, the binding [2] was “binds”.

B1: stomatin fused to a fragment of YFP (Venus) for BiFC (protein, UniProt P54116 1-284)
chain: MSDKRQSSHVQSQRIPESFRENSKTELGACGWILVAASFFFVIITFPISIWICIKIVKEYERVIIFRLGRILQGGAKGPGLFFILPCTDSLIKVDMRTISFDIPPQEVLTKDSVTISVDGVVYYRVQNATLAVANITNADSATRLLAQTTLRNALGTKNLSQILSDREEIAHHMQSTLDDATDDWGIKVERVEIKDVKLPVQLQRAMAAEAEAAREARAKVIAAEGEMNASRALKEASMVITESPAALQLRYLQTLTTIAAEKNSTIVFPLPVDMLQGIMGSNH
B1 was tested, and the binding [5] was “binds” and the binding [6] was “binds”.

B2: EYFP-tagged ASIC1a (natural protein, mouse, UniProt Q6NXK8-1 1-526, looked up)
chain: MELKTEEEEVGGVQPVSIQAFASSSTLHGLAHIFSYERLSLKRALWALCFLGSLAVLLCVCTERVQYYFCYHHVTKLDEVAASQLTFPAVTLCNLNEFRFSQVSKNDLYHAGELLALLNNRYEIPDTQMADEKQLEILQDKANFRSFKPKPFNMREFYDRAGHDIRDMLLSCHFRGEACSAEDFKVVFTRYGKCYTFNSGQDGRPRLKTMKGGTGNGLEIMLDIQQDEYLPVWGETDETSFEAGIKVQIHSQDEPPFIDQLGFGVAPGFQTFVSCQEQRLIYLPSPWGTCNAVTMDSDFFDSYSITACRIDCETRYLVENCNCRMVHMPGDAPYCTPEQYKECADPALDFLVEKDQEYCVCEMPCNLTRYGKELSMVKIPSKASAKYLAKKFNKSEQYIGENILVLDIFFEVLNYETIEQKKAYEIAGLLGDIGGQMGLFIGASILTVLELFDYAYEVIKHRLCRRGKCQKEAKRNSADKGVALSLDDVKRHNPCESLRGHPAGMTYAANILPHHPARGTFEDFTC
notes: source: CHO cells, transiently transfected, in live cells
With B2 the binding [7] was “binds”.

B3: EYFP-tagged ASIC1b (natural protein, mouse, UniProt Q6NXK8-2 1-559, looked up)
chain: MPIQIFCSVSFSSGEEAPGSMGDIWGPHHHHRQQQDSSESEEEEEKEKESGMELDEGDSPRDLVAFANSCTLHGASHVFVEGGPGPRQALWAVAFVIALGAFLCQVGDRVAYYLSYPHVTLLDEVATTELVFPAVTFCNTNAVRLSQLSYPDLLYLAPMLGLDESDDPGVPLAPPGPEAFSGEPFNLHRFYNRSCHRLEDMLLYCSYCGGPCGPHNFSVVFTRYGKCYTFNSGQDGRPRLKTMKGGTGNGLEIMLDIQQDEYLPVWGETDETSFEAGIKVQIHSQDEPPFIDQLGFGVAPGFQTFVSCQEQRLIYLPSPWGTCNAVTMDSDFFDSYSITACRIDCETRYLVENCNCRMVHMPGDAPYCTPEQYKECADPALDFLVEKDQEYCVCEMPCNLTRYGKELSMVKIPSKASAKYLAKKFNKSEQYIGENILVLDIFFEVLNYETIEQKKAYEIAGLLGDIGGQMGLFIGASILTVLELFDYAYEVIKHRLCRRGKCQKEAKRNSADKGVALSLDDVKRHNPCESLRGHPAGMTYAANILPHHPARGTFEDFTC
notes: as for B2
B3 was tested, and the binding [7] was “binds”.

B4: EYFP-tagged ASIC3 (natural protein, rat, UniProt O35240 1-533, looked up)
chain: MKPRSGLEEAQRRQASDIRVFASSCTMHGLGHIFGPGGLTLRRGLWATAVLLSLAAFLYQVAERVRYYGEFHHKTTLDERESHQLTFPAVTLCNINPLRRSRLTPNDLHWAGTALLGLDPAEHAAYLRALGQPPAPPGFMPSPTFDMAQLYARAGHSLEDMLLDCRYRGQPCGPENFTVIFTRMGQCYTFNSGAHGAELLTTPKGGAGNGLEIMLDVQQEEYLPIWKDMEETPFEVGIRVQIHSQDEPPAIDQLGFGAAPGHQTFVSCQQQQLSFLPPPWGDCNTASLDPDDFDPEPSDPLGSPRPRPSPPYSLIGCRLACESRYVARKCGCRMMHMPGNSPVCSPQQYKDCASPALDAMLRKDTCVCPNPCATTRYAKELSMVRIPSRASARYLARKYNRSESYITENVLVLDIFFEALNYEAVEQKAAYEVSELLGDIGGQMGLFIGASLLTILEILDYLCEVFQDRVLGYFWNRRSAQKRSGNTLLQEELNGHRTHVPHLSLGPRPPTTPCAVTKTLSASHRTCYLVTRL
notes: as for B2
For B4, the binding [7] was “binds”.

B5: EYFP-tagged ASIC4 (natural protein, mouse, UniProt Q7TNS7 1-539, looked up)
chain: MPIEIVCKIKFAEEDAKPKEKEAGDEQSLLGAAQGPAAPRDLATFASTSTLHGLGRACGPGPHGLRRTLWALALLTSLAAFLYQAASLARGYLTRPHLVAMDPAAPAPVAGFPAVTLCNINRFRHSALSDADIFHLANLTGLPPKDRDGHRAAGLRYPEPDMVDILNRTGHQLADMLKSCNFSGHHCSASNFSVVYTRYGKCYTFNADPQSSLPSRAGGMGSGLEIMLDIQQEEYLPIWRETNETSFEAGIRVQIHSQEEPPYIHQLGFGVSPGFQTFVSCQEQRLTYLPQPWGNCRAESELREPELQGYSAYSVSACRLRCEKEAVLQRCHCRMVHMPGNETICPPNIYIECADHTLDSLGGGSEGPCFCPTPCNLTRYGKEISMVKIPNRGSARYLARKYNRNETYIRENFLVLDVFFEALTSEAMEQQAAYGLSALLGDLGGQMGLFIGASILTLLEILDYIYEVSWDRLKRVWRRPKTPLRTSTGGISTLGLQELKEQSPCPSRGRAEGGGASSLLPNHHHPHGPPGSLFEDFAC
notes: as for B2
In the case of B5, the binding [7] is reported as “binds”.
